# According to paper PMC6602471:
# Some of the results follow. At the low end of the ranking the order means little.
# Target: T1, ELK1 (UniProt P19419)
# T1 sequence: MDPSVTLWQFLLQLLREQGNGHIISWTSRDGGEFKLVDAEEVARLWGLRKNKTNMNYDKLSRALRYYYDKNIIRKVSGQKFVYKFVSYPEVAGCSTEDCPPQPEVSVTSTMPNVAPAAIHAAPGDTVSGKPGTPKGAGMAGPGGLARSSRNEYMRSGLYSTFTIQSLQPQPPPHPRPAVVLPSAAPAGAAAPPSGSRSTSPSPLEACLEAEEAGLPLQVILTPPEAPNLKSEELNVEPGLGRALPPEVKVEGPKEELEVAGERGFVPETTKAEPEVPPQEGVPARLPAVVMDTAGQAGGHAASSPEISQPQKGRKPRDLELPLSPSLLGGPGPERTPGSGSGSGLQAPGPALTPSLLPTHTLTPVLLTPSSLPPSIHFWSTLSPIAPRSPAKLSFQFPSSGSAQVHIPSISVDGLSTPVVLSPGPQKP
# Experiment: custom PBM
# Conditions: custom protein-binding microarray; buffer, salt, pH and temperature not stated; high values mean tight binding; double strand, one strand shown
row,Sequence,binding signal (log fluorescence intensity)
1,TCCGGCTACCAGCTCCACCCACTACAGGCCTTGTAGGTCTTGATTCGCTTGACGCTGCTG,8.83
2,TGTCGGGTAACGGAATGTAGATCACGTGAATGAAAAGTCTTGATTCGCTTGACGCTGCTG,8.98
3,CGGAAGTGTCTTAAACGTCGGATATCCGGTTCTTCTGTCTTGATTCGCTTGACGCTGCTG,12.1
4,GGAAAAAGGCCCAGGGTAACACTGGAAGTGGGCTTAGTCTTGATTCGCTTGACGCTGCTG,8.89
5,GTGTATAGGATCCCATCCAACACACGTATTAAAATGGTCTTGATTCGCTTGACGCTGCTG,9.05
6,GTGTATAGGATCCCATCCAACACACGGGTTAAAATGGTCTTGATTCGCTTGACGCTGCTG,8.95
7,CACACTTTTTACAGTAATGTAGCACGCGTAACTCCTGTCTTGATTCGCTTGACGCTGCTG,8.97
8,GTGTATAGGATCCCATTCAACACACGTGTTAAAATGGTCTTGATTCGCTTGACGCTGCTG,8.9
9,TGTCGGGTAAGGGAATGTAGATCACGTGAATGAGAAGTCTTGATTCGCTTGACGCTGCTG,8.88
10,TGTCGGGTAAGGGAATGCAGATCACGTGAATGAAAAGTCTTGATTCGCTTGACGCTGCTG,8.89
11,GATTAATTTCTGCCCTTATTCGCACGTGCCATCACAGTCTTGATTCGCTTGACGCTGCTG,8.98
12,GTCTATAGGATCCCATCCAACACACGTGTTAAAATGGTCTTGATTCGCTTGACGCTGCTG,8.8
13,TAAAGAGAAGACGGTTGTGGTAGTTCCGGGTATTAAGTCTTGATTCGCTTGACGCTGCTG,11
14,GGGAAAAGGCCCAGGGTAACACCGGAAGTGGGCTTAGTCTTGATTCGCTTGACGCTGCTG,11.1
15,CGGAAGTGTCGTAAACGACGGATATCCGGTTCTTCTGTCTTGATTCGCTTGACGCTGCTG,12.7
16,CGGAAGTGTCGTAAACGTCGCATATCCGGTTCTTCTGTCTTGATTCGCTTGACGCTGCTG,11.6
17,GCTGCTGCGGTGCATACCCCACCGGATGTTACCCCGGTCTTGATTCGCTTGACGCTGCTG,10.1
18,GTGTATAGGATCCCATCCAACACACGCGTTAAAATGGTCTTGATTCGCTTGACGCTGCTG,8.94
19,TAAAGGGAAGACGGTTGTGGTAGTTCCGGGTAGTAAGTCTTGATTCGCTTGACGCTGCTG,11.1
20,GCTGCTGCGGTGGATACCCCACCGGATGTGACCCCGGTCTTGATTCGCTTGACGCTGCTG,10.4
21,CACAATTTTTACAGTAATGTAGCACGAGTAACTCCTGTCTTGATTCGCTTGACGCTGCTG,8.79
22,GCTGCTGCGGTGCATACCCCACCGGATTTGACCCCGGTCTTGATTCGCTTGACGCTGCTG,8.88
23,GGAAAAAGGCCCAGGGTAACACCGGAAGTAGGCTTAGTCTTGATTCGCTTGACGCTGCTG,10.7
24,TGTCGGGTAAGGGATTGTAGATCACGTGAATGAAAAGTCTTGATTCGCTTGACGCTGCTG,8.83
25,TGTCGGGTAAGGGAGTGTAGATCACGTGAATGAAAAGTCTTGATTCGCTTGACGCTGCTG,8.9
26,CGGAAGTGTCGTAAACGTCGGATATCCGGTTATTCTGTCTTGATTCGCTTGACGCTGCTG,12.5

row,Sequence,binding signal (log fluorescence intensity)
1,CAGCACAGGACTTCTTCCCTGAAGCAATTGATAACCGTCTTGATTCGCTTGACGCTGCTG,8.97
2,GTGTATAGGATCCCACCCAACACACGTGTTAAAATGGTCTTGATTCGCTTGACGCTGCTG,8.85
3,GCTGCTGCGGCGCATACCCCACCGGATGTGACCCCGGTCTTGATTCGCTTGACGCTGCTG,10.2
4,CGGTAGTGTCGTAAACGTCGGATATCCGGTTCTTCTGTCTTGATTCGCTTGACGCTGCTG,12.5
5,CACCATTTTTACAGTAATGTAGCACGCGTAACTCCTGTCTTGATTCGCTTGACGCTGCTG,8.83
6,GTGTATAGGATCCCATCCAACACGCGTGTTAAAATGGTCTTGATTCGCTTGACGCTGCTG,8.9
7,CGGAAGTGACGTAAACGTCGGATATCCGGTTCTTCTGTCTTGATTCGCTTGACGCTGCTG,12.3
8,CGGAAGTGTCGTAAACGTCGGAGATCCGGTTCTTCTGTCTTGATTCGCTTGACGCTGCTG,10.8
9,CGGAAGTGTCGTAAACGTCGGATATCCGGTTCTACTGTCTTGATTCGCTTGACGCTGCTG,12.4
10,GATGAATTTCTGCCCTTATTCGCACGTGCCATAACAGTCTTGATTCGCTTGACGCTGCTG,8.9
11,GTGTATAGGATCCCATCCAACACACGTTTTAAAATGGTCTTGATTCGCTTGACGCTGCTG,8.88
12,CTGGGACTTGACCCAACTCGGCCACGTGGGTCGTTTGTCTTGATTCGCTTGACGCTGCTG,8.96
13,TGTCGGGTAAGGGAATGTAGATGACGTGAATGAAAAGTCTTGATTCGCTTGACGCTGCTG,8.95
14,GGAAAAAGGCCCAGGGTAACACCGGAAGTGGCCTTAGTCTTGATTCGCTTGACGCTGCTG,10.9
15,CTGGGACTTGACCCAGCTCTGCCACGTGGGTCGTTTGTCTTGATTCGCTTGACGCTGCTG,8.97
16,CACAATTTTTACAGTAATGCAGCACGCGTAACTCCTGTCTTGATTCGCTTGACGCTGCTG,8.91
17,CACAATTTTTCCAGTAATGTAGCACGCGTAACTCCTGTCTTGATTCGCTTGACGCTGCTG,8.84
18,CGGAAGTGTCGTAAACGTCGGACATCCGGTTCTTCTGTCTTGATTCGCTTGACGCTGCTG,12.4
19,TACTGACTTATATATGCGAATGCACATGAATAGATCGTCTTGATTCGCTTGACGCTGCTG,8.94
20,TCCGGCTACCAGCTCCACCCACTTCAGGCCTTCTAGGTCTTGATTCGCTTGACGCTGCTG,8.85
21,GATTAATTTCTGCCCTTATTCGCACGTGCCATAACAGTCTTGATTCGCTTGACGCTGCTG,8.92
22,CTGGGACTTGACCCAACTCTGCCGCGTGGGTCGTTTGTCTTGATTCGCTTGACGCTGCTG,8.91
23,CGGAAGTGTCGTAAACGTCGGATATGCGGTTCTTCTGTCTTGATTCGCTTGACGCTGCTG,9.16
24,GCTGCTGCGTTGCATACCCCACCGGATGTGACCCCGGTCTTGATTCGCTTGACGCTGCTG,10.1
25,TAAAGCGAAGACGGTTGTGGTAGTTCCGGGTATTAAGTCTTGATTCGCTTGACGCTGCTG,11.1
26,TCCGGCTACCAGCTCCACCCACTTCAGGCCATGTAGGTCTTGATTCGCTTGACGCTGCTG,8.89
